Results reported in the BET-seq Pho4 binding data (Le et al. 2018).
This is one part of the list. These are noisy estimates, calculated here from bound and input reads.

The sequences below were run against T1, Pho4 (S. cerevisiae) (UniProt P07270) (assay: relative binding free energy (BET-seq); higher = weaker binding). Conditions: reference: library average.
T1 sequence: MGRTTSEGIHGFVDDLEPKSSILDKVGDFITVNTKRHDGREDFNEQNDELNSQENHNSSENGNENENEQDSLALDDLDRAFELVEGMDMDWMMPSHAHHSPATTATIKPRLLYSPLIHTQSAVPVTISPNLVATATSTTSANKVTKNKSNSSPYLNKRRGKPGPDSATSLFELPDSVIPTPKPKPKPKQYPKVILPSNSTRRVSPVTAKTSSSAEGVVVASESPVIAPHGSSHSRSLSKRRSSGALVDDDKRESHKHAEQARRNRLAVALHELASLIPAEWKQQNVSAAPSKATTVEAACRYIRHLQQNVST

| Sequence | relative binding free energy |
| --- | --- |
| GCGGGCACGTGAGGCG | 0.16 kcal/mol |
| TATGACACGTGCGGGT | 0.06 kcal/mol |
| ATGGTCACGTGGTTGT | 0.07 kcal/mol |
| AACGACACGTGTGTGG | 0.14 kcal/mol |
| GGTTACACGTGTACGT | 0.27 kcal/mol |
| GGTGACACGTGGTTTC | 0.16 kcal/mol |
| GGTATCACGTGGGATT | 0.05 kcal/mol |
| CGCGGCACGTGGCGTT | -0.14 kcal/mol |
| AAGTGCACGTGGGTGC | -0.14 kcal/mol |
| AGCGCCACGTGGTGTG | -0.21 kcal/mol |
| AGGTTCACGTGAGATA | 0.42 kcal/mol |
| CGATGCACGTGGGGTC | -0.16 kcal/mol |
| ATAGGCACGTGAGAGA | 0.13 kcal/mol |
| TTCTTCACGTGTGGCA | 0.27 kcal/mol |
| TGGGACACGTGGCTCG | -0.06 kcal/mol |
| ATAATCACGTGGCGTA | 0.11 kcal/mol |
| GGGTTCACGTGCTATA | 0.21 kcal/mol |
| CTTGACACGTGTAGTG | 0.03 kcal/mol |
| TCGGTCACGTGACGGT | 0.34 kcal/mol |
| ATTTACACGTGAAAGT | 0.3 kcal/mol |
| TCGTGCACGTGCTGAT | 0.17 kcal/mol |
| TGTGGCACGTGGTGAC | -0.11 kcal/mol |
| GCGGTCACGTGTAGCT | 0.26 kcal/mol |

| Sequence | relative binding free energy |
| --- | --- |
| TGGACCACGTGGGCGT | -0.25 kcal/mol |
| TAGGGCACGTGAAGGA | 0.16 kcal/mol |
| AAGTTCACGTGAGGCG | 0.59 kcal/mol |
| ATCGACACGTGGCGTG | 0.07 kcal/mol |
| GGAGTCACGTGCATGT | 0.09 kcal/mol |
| TGGGACACGTGGGCAT | -0.25 kcal/mol |
| TGAGGCACGTGTTGGA | -0.08 kcal/mol |
| GTACGCACGTGTGATT | 0.13 kcal/mol |
| GTCGGCACGTGTCGTG | 0.01 kcal/mol |
| CTTATCACGTGTTCGT | 0.1 kcal/mol |
| AAAGTCACGTGTGGGT | 0.14 kcal/mol |
| GGCAACACGTGGTTGT | -0.06 kcal/mol |
| CGTTACACGTGGCGTG | -0.08 kcal/mol |
| GTAAGCACGTGGAGTG | -0.15 kcal/mol |
| GTGTGCACGTGTGTTG | 0.15 kcal/mol |
| TTAAACACGTGGTGAA | 0.02 kcal/mol |
| TGGTACACGTGCAGAG | 0.06 kcal/mol |
| GGGGTCACGTGTCTGG | 0.31 kcal/mol |
| TGGGTCACGTGGAAAC | 0.28 kcal/mol |
| GAGAGCACGTGAAGGT | 0.26 kcal/mol |
| GGGGACACGTGTGAAA | 0.12 kcal/mol |
| GAGTGCACGTGTAGGA | -0.01 kcal/mol |
| TTAGTCACGTGTCCGA | 0.27 kcal/mol |

| Sequence | relative binding free energy |
| --- | --- |
| ACTTACACGTGTGTTG | 0.08 kcal/mol |
| CTAGTCACGTGGGCGT | 0.06 kcal/mol |
| TGGAGCACGTGACGTT | 0.08 kcal/mol |
| GATCTCACGTGGTTGG | 0.3 kcal/mol |
| GATGGCACGTGTTTCT | -0.04 kcal/mol |
| TTATTCACGTGGAGTA | 0.2 kcal/mol |
| CTTGTCACGTGTTCGG | 0.07 kcal/mol |
| GACTGCACGTGGGTGA | 0.05 kcal/mol |
| GGGTGCACGTGCGAGG | 0.02 kcal/mol |
| AATAGCACGTGTTGTG | -0.22 kcal/mol |
| GGGAACACGTGTTTTT | 0.19 kcal/mol |
| GGCGACACGTGTGTAG | 0.03 kcal/mol |
| GTGTCCACGTGTAATT | 0.1 kcal/mol |
| TTCGGCACGTGTGTAA | -0.17 kcal/mol |
| AGTTGCACGTGGGGGA | -0.09 kcal/mol |
| TGAATCACGTGAGGGA | 0.24 kcal/mol |
| ATGTACACGTGGTTAA | -0.04 kcal/mol |
| TGTGCCACGTGTTTAA | -0.15 kcal/mol |
| ATATTCACGTGAGAGA | 0.34 kcal/mol |
| GCTAGCACGTGATGGG | 0.05 kcal/mol |
| GGAGTCACGTGGAGGG | 0.1 kcal/mol |
| TGTAACACGTGCTTGA | -0.01 kcal/mol |
| AAGTTCACGTGAATGT | 0.34 kcal/mol |

| Sequence | relative binding free energy |
| --- | --- |
| TGCATCACGTGGTCTG | -0.05 kcal/mol |
| AGGTACACGTGAGTAG | 0.1 kcal/mol |
| TGTCTCACGTGCGGGG | 0.09 kcal/mol |
| GAGGACACGTGTTCGG | 0.07 kcal/mol |
| AGGTTCACGTGGTATG | 0.28 kcal/mol |
| CGAGACACGTGTTTTG | 0.05 kcal/mol |
| ATTAGCACGTGTGATG | -0.02 kcal/mol |
| TTTGGCACGTGGACTT | -0.2 kcal/mol |
| TTAGGCACGTGGGTCA | -0.28 kcal/mol |
| TTTAACACGTGGAGTC | 0.13 kcal/mol |
| TTAAACACGTGTAGTG | 0.03 kcal/mol |
| TTGTACACGTGTGTAA | 0.04 kcal/mol |
| TAGTGCACGTGATATT | 0.05 kcal/mol |
| CAGTACACGTGGGTAG | -0.06 kcal/mol |
| TAGAACACGTGGGGAG | -0.17 kcal/mol |
| GTTCGCACGTGTAGGA | 0 kcal/mol |
| GCAGTCACGTGGCGTG | 0.03 kcal/mol |
| AATTGCACGTGTTGAG | 0.03 kcal/mol |
| TGTCGCACGTGAGGGC | 0.17 kcal/mol |
| TTCGTCACGTGCGTTT | 0.12 kcal/mol |
| GGGTACACGTGATGCA | 0.26 kcal/mol |
| TGTATCACGTGATTGG | 0.32 kcal/mol |
| TTTGTCACGTGGGGTT | 0.06 kcal/mol |

| Sequence | relative binding free energy |
| --- | --- |
| GAAGTCACGTGAGGTA | 0.34 kcal/mol |
| TAGAACACGTGTGATA | 0.18 kcal/mol |
| ATTTCCACGTGGTTTA | -0.04 kcal/mol |
| CTCGGCACGTGTTTAG | 0.08 kcal/mol |
| AAGTCCACGTGGTTGG | 0.02 kcal/mol |
| AATGGCACGTGGTATA | -0.11 kcal/mol |
| AGGTGCACGTGTGTAG | -0.03 kcal/mol |
| TTAAGCACGTGGTTTA | -0.13 kcal/mol |
| GAGTGCACGTGGGTCT | -0.06 kcal/mol |
| GGAGTCACGTGTATAG | 0.17 kcal/mol |
| AAAATCACGTGTGGGC | 0.2 kcal/mol |
| CGTGTCACGTGATTGT | 0.25 kcal/mol |
| GTGGACACGTGTCTGA | 0.14 kcal/mol |
| TTAGACACGTGTTCGT | 0.07 kcal/mol |
| TCGTGCACGTGGAGGG | -0.03 kcal/mol |
| GGGGGCACGTGAAGCT | 0.13 kcal/mol |
| ATATTCACGTGATTTA | 0.22 kcal/mol |
| TTGTTCACGTGCACGG | 0.23 kcal/mol |
| GTTTGCACGTGACGCG | 0.1 kcal/mol |
| GAAGTCACGTGGGTTG | 0.07 kcal/mol |
| ATTTTCACGTGGTGGG | 0.22 kcal/mol |
| TATCTCACGTGGGGAG | 0.14 kcal/mol |
| GAGTGCACGTGAGTTA | 0.25 kcal/mol |
